Sequences with one replicate were seen in a single cluster, so their values are uncertain.
System: ATP
Assay: switch fluorescence ratio, 500 uM ATP over buffer (Cy3 cluster intensity, sum of 5 cycles each) (fold (ratio)); higher = stronger signal-on switching upon ATP binding; sequences stand for … in TCGTCGGCAGCGTCAGATGTGTATAAGAGACAGTTTTTTTTTTTTTTTTTTTTTTTTT…TC
Settings: aptamer strand: ATP DNA aptamer (quencher-CACCTGGGGGAGTATTGCGGAGGAAGG + anchor), 100 nM annealed; ATP concentration: 500 uM; one replicate
Summary of the method: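 Five buffer/ATP imaging cycles were run on Cy3-labelled switching-strand clusters on a modified Illumina MiSeq flow-cell, with NaOH stripping and re-annealing between cycles. In each cycle, clusters annealed to 100 nM quencher-labelled ATP aptamer were imaged in selection buffer, then after 15 min with 500 uM ATP at 22 °C. Per cluster, the fluorescence ratio is summed target-cycle over summed buffer-cycle Cy3 intensity, averaged per switch-domain sequence. Only clusters within 100-1000 RFU were kept.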
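Note: ATP exposure 15 min at 22 °C before imaging.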

| Sequence | switch fluorescence ratio |
| --- | --- |
| CTGTCGACGG | 0.938 |
| TCTTGGGCG | 1.03 |
| AATCTCGCCG | 1.03 |
| CTACCCTTCG | 1.37 |
| AATTCAAACA | 1.03 |
| GTTTTCAAT | 1 |
| AAATAATAGT | 0.975 |
| GCATGAGGCC | 0.962 |
| AAACCAGTGC | 1.25 |
| TAGTTGGTAG | 1.01 |
| AGCCTCGTTC | 1.01 |
| CCTAAACTGA | 1.04 |
| TCCGGCGTAG | 1.09 |
| CTCTAAAGAG | 1.06 |
| GCGATGTTGT | 1.01 |
| ATAGTCTCGT | 0.918 |
| TGCTCGCCCT | 1.01 |
| GCCTTATCAG | 0.971 |
| GGAGGCGCCT | 0.96 |
| GAAACGTATA | 1.1 |
| AGCAAACGGT | 1.21 |
| CGTTATTTTA | 1.01 |
| CGGAGGTCGG | 1 |

| Sequence | switch fluorescence ratio |
| --- | --- |
| ATTTCGAAAA | 0.969 |
| TATCTTGAGC | 0.955 |
| TTTGAAGAGA | 0.957 |
| ATGTCTGGCG | 0.99 |
| TCTGTAGTTA | 1.15 |
| CTGCAGTATT | 1.28 |
| TTTCTAATCG | 1.02 |
| GAGAAGTAAT | 0.985 |
| TAAGCACAA | 1.11 |
| AAAACAGATT | 1.03 |
| GGTGGGAGG | 1 |
| CGATGGCGGA | 1.08 |
| GGTAGACAAA | 0.995 |
| GTCTACGGTG | 0.976 |
| CAATAAATTG | 0.945 |
| CAAGAAATTG | 1.08 |
| GCAATCGCGC | 1.2 |
| TATGTTGACT | 1.04 |
| CGTCTAGTAT | 1.02 |
| GTCTAGGGTG | 1.11 |
| ACACACAAGG | 1.48 |
| CCTGAATCTG | 1.18 |
| CGAAGGGATC | 1.18 |

| Sequence | switch fluorescence ratio |
| --- | --- |
| CCTCCCCCCA | 3.07 |
| GCATCAATAA | 1.1 |
| CGTGGTTGCT | 1.06 |
| TCTGGTATTA | 0.992 |
| CCAAGAAGCG | 1.06 |
| TGGGTTCGT | 0.997 |
| TGCACGCGTC | 1.06 |
| TGCGCACACA | 1.04 |
| AGCTCATTTC | 0.998 |
| CCGGACGATA | 1.58 |
| TCAATGCTAT | 1.05 |
| GAGTTTGATA | 1.04 |
| GTTACGCTAT | 1.28 |
| TGGCCGCGGC | 0.911 |
| GAGTGTGTGG | 0.969 |
| CACGTGACCT | 1.21 |
| TTTTTGCGTG | 0.98 |
| ACCTGATTAC | 1.17 |
| CTGAGCAGT | 1.03 |
| TTGGATGGCT | 1.04 |
| TCACCTCCA | 1.06 |
| GAGTAGCCCC | 1.02 |
| TATTTCCAGG | 1.23 |

| Sequence | switch fluorescence ratio |
| --- | --- |
| GCCTTAGCTT | 1.07 |
| GGACCGTCCC | 1.2 |
| CAAAAATTTG | 1.02 |
| CTATTAACAG | 1.02 |
| CTGGTGCGAC | 1.31 |
| AATTCTCTCT | 1.02 |
| CGATAGATTT | 1.05 |
| GCTATGTAAG | 0.985 |
| AGAAAGACCT | 1.58 |
| GGAGATTGTT | 1.03 |
| GAACAGGCAG | 0.987 |
| GAGTATAAAA | 1.01 |
| GCCAAACGAT | 1.02 |
| AAGCTGATA | 0.964 |
| CAGAACATGG | 0.944 |
| TCTTTACTTC | 0.997 |
| ACCGCTTCCC | 1.9 |
| GTTCAAGATG | 0.962 |
| GTGGATTTGC | 0.965 |
| ATGCGTAAAC | 1.06 |
| CACACTGTGC | 1.05 |
| GTAATGGCTA | 0.992 |
| TATAGAAAAA | 0.901 |

| Sequence | switch fluorescence ratio |
| --- | --- |
| CTGAGGCTAT | 2.87 |
| AATCAAAGC | 1.03 |
| AGAGTTTCCG | 1.06 |
| GAGCAGAGGA | 0.992 |
| TATTACTGGT | 0.999 |
| ACCCGGTTGT | 1.15 |
| CGTATTGGAG | 0.967 |
| TATTAATCCA | 0.971 |
| TTGTGTTGT | 1.02 |
| GAATTAACA | 1.02 |
| TTTCACTCCG | 1.39 |
| TCTTGTTAAT | 0.955 |
| TATAAGCATG | 0.991 |
| GTAGTGTGT | 1 |
| TTTAGCCGCG | 0.986 |
| AAGTCCCGGT | 1 |
| AACCACCCGT | 1.04 |
| TAATATCTAG | 1.04 |
| GAATTGGCG | 0.986 |
| TTTATCGCCA | 1.02 |
| CCGTTATGAG | 1.05 |
| AGGATCTTCC | 1 |
| GCTCGCGGCT | 0.975 |

| Sequence | switch fluorescence ratio |
| --- | --- |
| ATTTCGATCT | 0.981 |
| CACGGTTCTT | 0.985 |
| TCAGCCATCC | 1.31 |
| TTTCGG | 1.04 |
| GTTAACACTG | 1.03 |
| GATAGTCGAC | 1.01 |
| AAGTACTCAC | 1.34 |
| ATGTTGGCCT | 0.999 |
| ATATGGAAGA | 1.01 |
| GGTTCGTTAG | 1.03 |
| AATACATCAA | 1.02 |
| AGTATTTACA | 0.957 |
| AATCAGCGCT | 1.01 |
| AGTAGTCTTA | 0.977 |
| TCAAGGGGG | 0.968 |
| AGTTTACCGT | 0.992 |
| CAGATGTTAT | 0.987 |
| AGGCTGCATC | 1.11 |
| CCAGTGTGCT | 1.33 |
| GGGGGGCTAC | 1.11 |
| ACAAATGACC | 1.04 |
| GAAAAGTAGC | 1.02 |
| TACCAGCTGC | 1.07 |

| Sequence | switch fluorescence ratio |
| --- | --- |
| TCACTAATTA | 1.02 |
| CGCTTCGGGC | 1.01 |
| TAATAGACTC | 1.08 |
| GGTGCAGCA | 0.975 |
| CGGGACAGAC | 1.2 |
| GCTACTTTTT | 0.976 |
| GGGGATAATG | 0.994 |
| TGGGACCAAG | 0.963 |
| TGGCCGGACA | 0.961 |
| GCTTGGACTT | 1.02 |
| ACTACATATT | 1.06 |
| ATGAGACTC | 0.988 |
| GTTGCGCTTT | 1.07 |
| ATCGTCTTCC | 1.12 |
| GTCGCACGTG | 1.06 |
| GGGTGATGCC | 1.05 |
| TTATGCATTG | 0.989 |
| GGGACAAAAG | 0.994 |
| AAGATCATTT | 0.996 |

Source: the supplement of paper PMC10126150
